Measured values published in the supplement of paper PMC9446081.
Hit rate of the full screen: of about 39,000 compounds, about 220 (0.56%) showed activity. This is one part of the list.

tested on: Escherichia coli K-12 BW25113; assay: relative growth (OD600 normalised to plate interquartile mean) (fraction); higher = less growth inhibition, active = 0.2 or less; conditions: 50 µM; LB; incubation time: overnight (16-24 h)
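Further: static incubation at 37 °C against the wild-type strain, values averaged over two biological replicates.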

| SMILES | relative growth |
| --- | --- |
| CC(C)NC(=O)N(C)C[C@H]1Oc2ccc(NS(=O)(=O)c3ccc(Cl)cc3)cc2C(=O)N([C@H](C)CO)C[C@H]1C | inactive: 1.03 |
| COC(=O)C[C@@H]1CC[C@@H]2[C@H](COC[C@H](O)CN2S(=O)(=O)c2cn(C)cn2)O1 | inactive: 0.992 |
| COc1ccccc1CNC(=O)C[C@H]1C[C@@H]2c3cc(NC(=O)NC4CCCC4)ccc3O[C@@H]2[C@@H](CO)O1 | inactive: 1.02 |
| C[C@@H]1CN([C@@H](C)CO)C(=O)c2cc(NC(=O)CCC(F)(F)F)ccc2O[C@H]1CN(C)C(=O)Nc1ccc(C(F)(F)F)cc1 | inactive: 0.969 |
| COc1ccc(S(=O)(=O)Nc2ccc3c(c2)C(=O)N([C@H](C)CO)C[C@H](C)[C@H](CN(C)Cc2ccc(Cl)c(Cl)c2)OCCCC[C@@H](C)O3)cc1 | inactive: 1.05 |
| CC(C)c1cccc(NC(=O)C[C@H]2CC[C@H]3[C@@H](COc4ccc(NC(=O)c5ccc(C#N)cc5)cc4C(=O)N3C)O2)c1 | inactive: 0.994 |
| CCCNC(=O)Nc1ccc2c(c1)OC[C@H](C)N(Cc1ccc(-c3ccccn3)cc1)C[C@@H](C)[C@H](OC)CN(C)C2=O | inactive: 0.983 |
| O=C(C[C@H]1C[C@@H]2c3cc(NS(=O)(=O)c4ccc(F)cc4)ccc3O[C@@H]2[C@@H](CO)O1)NCc1cccnc1 | inactive: 0.954 |
| C[C@@H]1CN([C@H](C)CO)C(=O)c2cc(C#CCN(C)C)cnc2O[C@@H]1CN(C)C(=O)c1cnccn1 | inactive: 1.02 |
| C[C@H]1CCCCO[C@@H](CN(C)C(=O)Nc2ccc(C(F)(F)F)cc2)[C@@H](C)CN([C@@H](C)CO)C(=O)c2cc(NC(=O)C3CCCCC3)ccc2O1 | inactive: 1 |
| COCCCNC(=O)[C@@]1(Sc2ccc(C)cc2)CC(=O)N(C2Cc3ccccc3C2)[C@@H]1c1ccc(CO)cc1I | inactive: 1.02 |
| COc1ccc(NC(=O)Nc2ccc3c(c2)C(=O)N([C@@H](C)CO)C[C@H](C)[C@H](CN(C)Cc2ccc(C(F)(F)F)cc2)OCCCC[C@H](C)O3)cc1 | inactive: 1.03 |
| C[C@@H]1CN([C@@H](C)CO)C(=O)Cc2cc(NC(=O)Nc3ccc4c(c3)OCO4)ccc2O[C@@H]1CN(C)Cc1ccc(C(=O)Nc2ccccc2N)cc1 | inactive: 0.978 |
| CO[C@@H]1CN(C)C(=O)c2cc(NC(=O)Nc3ccccc3F)ccc2OC[C@H](C)N(Cc2ccccc2C(=O)O)C[C@H]1C | inactive: 0.979 |
| C=CC[C@@H](CC(=O)N(CCO)Cc1ccccc1)C(=O)N[C@H](COC(=O)[C@H](CC=C)CC(=O)OC(C)(C)C)Cc1c[nH]c2ccccc12 | inactive: 1.09 |
| CC(=O)N(C)C[C@@H]1Oc2ncc(C#C[C@@H](C)O)cc2C(=O)N([C@H](C)CO)C[C@@H]1C | inactive: 0.89 |
| NCC[C@@H]1CC[C@@H](NC(=O)NC2CCCCC2)[C@H](CO)O1 | inactive: 1.03 |
| Cc1ccc2[nH]c3c(c2c1)CCC[C@H]3Nc1ccc(Cl)cc1 | inactive: 1 |
| C[C@@H]1CN([C@@H](C)CO)C(=O)c2ccccc2-c2ccccc2CO[C@H]1CN(C)S(=O)(=O)c1cn(C)cn1 | inactive: 0.984 |

| SMILES | relative growth |
| --- | --- |
| CCCC(=O)Nc1ccc2c(c1)OC[C@@H](C)N(S(=O)(=O)c1cn(C)cn1)C[C@@H](C)[C@H](OC)CN(C)C2=O | inactive: 0.998 |
| O=C(C[C@H]1CC[C@H]2[C@@H](COC[C@@H](O)CN2S(=O)(=O)c2ccc(F)cc2)O1)N1CCc2ccccc2C1 | inactive: 0.964 |
| Cc1noc(C)c1NC(=O)N(C)C[C@@H]1Oc2c(NC(=O)c3cnccn3)cccc2C(=O)N([C@@H](C)CO)C[C@H]1C | inactive: 0.999 |
| C[C@@H]1CN([C@@H](C)CO)C(=O)c2cc(C#CC3(O)CCCC3)cnc2O[C@@H]1CN(C)C(=O)C1CCCCC1 | inactive: 0.995 |
| C[C@H](CO)N1C[C@H](C)[C@@H](CN(C)Cc2ccc(C(F)(F)F)cc2)Oc2c(NC(=O)c3ccc(-c4nccs4)cc3)cccc2C1=O | inactive: 1.01 |
| C[C@@H]1CN([C@H](C)CO)C(=O)c2cc(NS(=O)(=O)c3cccs3)ccc2O[C@H]1CN(C)Cc1ccc(Oc2ccccc2)cc1 | inactive: 1.02 |
| C[C@H]1CN([C@@H](C)CO)C(=O)c2cc(NS(=O)(=O)c3ccccc3)ccc2O[C@H]1CN(C)Cc1ccc(Oc2ccccc2)cc1 | inactive: 1 |
| COCCNC(=O)C[C@H]1CC[C@@H]2[C@H](COc3ccc(NC(=O)Nc4cccc(F)c4)cc3C(=O)N2C)O1 | inactive: 0.974 |
| CCN1C(=O)S/C(=C\C(=O)O)C1=O | inactive: 0.98 |
| C[C@@H]1CCCCO[C@H](CN(C)Cc2ccncc2)[C@H](C)CN([C@@H](C)CO)C(=O)c2cc(NS(=O)(=O)c3ccc(Cl)cc3)ccc2O1 | inactive: 1.02 |
| COc1ccc(CN(C)C[C@H]2Oc3ccc(NC(=O)CCCCCC(=O)Nc4ccccc4N)cc3CC(=O)N([C@@H](C)CO)C[C@@H]2C)cc1 | inactive: 1.01 |
| C[C@H]1CN([C@@H](C)CO)C(=O)Cc2cc(NS(=O)(=O)c3cccs3)ccc2O[C@@H]1CN(C)S(=O)(=O)c1ccc(F)cc1 | inactive: 1.01 |
| C[C@@H]1CN([C@H](C)CO)C(=O)c2cc(NS(=O)(=O)c3cn(C)cn3)ccc2O[C@H]1CN(C)S(=O)(=O)c1ccc(F)cc1 | inactive: 1.01 |
| COc1ccc(NC(=O)N(C)C[C@H]2OCCCC[C@@H](C)Oc3ccc(NS(=O)(=O)c4ccc(C)cc4)cc3C(=O)N([C@H](C)CO)C[C@@H]2C)cc1 | inactive: 0.944 |
| COc1ccc(CN(C)C[C@H]2Oc3c(NS(C)(=O)=O)cccc3C(=O)N([C@H](C)CO)C[C@H]2C)cc1 | inactive: 1.01 |
| C[C@@H]1CCCCO[C@H](CN(C)C)[C@H](C)CN([C@@H](C)CO)C(=O)c2cc(NC(=O)CCCN(C)C)ccc2O1 | inactive: 0.975 |
| CCn1c(N)nc2c1c(=O)[nH]c(=O)n2C | inactive: 0.99 |
| C[C@H](CO)N1C[C@H](C)[C@@H](CN(C)S(=O)(=O)c2ccc(Cl)cc2)OCCCC[C@H](C)Oc2ccc(NC(=O)CCC(F)(F)F)cc2C1=O | inactive: 1 |
